Data as given in PubChem BioAssay AID1745853 (National Center for Advancing Translational Sciences (NCATS), 2022).
Some of the results follow. Shown are side measurements of this screen, not its main read-out; they come without a call.

Legend:
Assay in all cases: Primary Screen for Target Class Profiling of Small Molecule Inhibitors of Methyltransferases
[1] = target: Glycine N-methyltransferase (Homo sapiens) (UniProt Q14749); conditions: purified enzyme, MTase-Glo SAH luminescence; measured here: GNMT inhibition; at 40 µM; stronger effect = lower value
How it was run: (§1)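 Each enzyme was assayed with SAM and its substrate. SAH formation detected by MTase-Glo luminescence; single-point 40 uM screen[…].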

[2] = target: Guanidinoacetate N-methyltransferase (Homo sapiens) (UniProt Q14353); conditions: purified enzyme, MTase-Glo SAH luminescence; measured here: GAMT inhibition; at 40 µM; stronger effect = lower value
How it was run: as §1

[3] = target: Histamine N-methyltransferase (Homo sapiens) (UniProt P50135); conditions: purified enzyme, MTase-Glo SAH luminescence; measured here: HNMT inhibition; at 40 µM; stronger effect = lower value
How it was run: as §1

[4] = target: Nicotinamide N-methyltransferase (Homo sapiens) (UniProt P40261); conditions: purified enzyme, MTase-Glo SAH luminescence; measured here: NNMT inhibition; at 40 µM; stronger effect = lower value
How it was run: as §1

[5] = target: Phenylethanolamine N-methyltransferase (Homo sapiens) (UniProt P11086); conditions: purified enzyme, MTase-Glo SAH luminescence; measured here: PNMT inhibition; at 40 µM; stronger effect = lower value
How it was run: as §1
On the % scale 0 is the no-effect control and ±100 the full control effect.

Row | SMILES | activity change, negative = inhibition [1] | activity change, negative = inhibition [2] | activity change, negative = inhibition [3] | activity change, negative = inhibition [4] | activity change, negative = inhibition [5]
1 | Cc1ccc(NC(=O)N2Cc3ccccc3-n3cccc3C2C(C)C)cc1F (centres undefined) | 3.71% | 2.27% | 7.98% | 8.5% | 10.9%
2 | COCC1CN(C)CC12CCN(C(=O)c1cncc(C)c1)CC2 (centres undefined) | -1.89% | -0.107% | -4.5% | 2.96% | 4.55%
3 | CCOc1ccccc1NC(=O)N1Cc2ccccc2-n2cccc2C1C (centres undefined) | -4.53% | 1.58% | 7.36% | 6.36% | 9.55%
4 | N#CC(C#N)=Cc1ccc(O)c(O)c1 | -37.2% | 10.4% | 0.475% | -4% | 7.68%
5 | CC(=O)O[C@@H]1[C@H]2CC[C@H]3[C@@](C)(O)[C@@H]4C[C@H](O)C(C)(C)[C@@]4(O)[C@H](O)C[C@@]13C[C@@]2(C)O | 0% | 2% | 7.04% | -8.33% | 0.198%
6 | CC(C)(C)c1cc(C(C)(C)C)c2c(c1)C(O)(C(F)(F)F)C(=O)O2 (centres undefined) | -6.35% | -22.4% | -3.42% | -36.4% | -0.859%
7 | COc1ccc2[nH]c3c(c2c1)CCNC3 | -5.32% | -5.1% | -37% | -15.7% | -9.39%
8 | COc1ccc(S(=O)(=O)N2C[C@@H]3C[C@H](C2)c2c(-c4cccs4)ccc(=O)n2C3)cc1 | -6.7% | -9.17% | -5.21% | -17% | 7.59%
9 | Cc1cccc(C)c1NC(=O)CN1CCCC1=O | 7.15% | 12.8% | 5.11% | 0.885% | 10.9%
10 | C=C1C(=O)OC2/C=C(\COO)CC/C=C(\COC(C)=O)CC(OC(=O)C(C)CC)C12 (centres undefined) | 4.1% | 5.64% | 6.01% | -6.35% | 6.91%
11 | COc1ccc(C2c3cccn3-c3ccccc3CN2C(=O)Nc2ccc(OC)cc2OC)cc1 (centres undefined) | 4% | 2.27% | -6.44% | -3.7% | 0.728%
12 | CCN1C[C@]2(COC)CC[C@H](O)[C@@]34C5C[C@@H]6[C@@H](OC)C[C@@](OC(C)=O)(C5[C@@H]6OC(C)=O)[C@H]([C@H](OC)C23)[C@@H]14 (some centres undefined) | -5.51% | -12.4% | -3.78% | -18.2% | -5.55%
13 | O=C(Nc1ccc2n(c1=O)C[C@H]1C[C@@H]2CN(c2ncccn2)C1)c1ccccc1 | -7.22% | -8.92% | -12.5% | -11.2% | -8.86%
14 | NC(=O)CI | -53.9% | 14.4% | 9.56% | 1.17% | 3.25%
15 | CCCSc1ncc(CN2CC[C@H]3CNC[C@H]32)cn1 | -2.13% | 0.734% | -2.73% | -3.14% | -4.57%
16 | COc1cccc(CNC(=O)N2Cc3ccccc3-n3cccc3C2c2ccc(SC)cc2)c1 (centres undefined) | 1.3% | 0% | 1.41% | -0.954% | 3.87%
17 | O=C(Nc1ccccc1)N1Cc2ccccc2-n2cccc2C1c1cc(F)cc(F)c1 (centres undefined) | -0.513% | 0.736% | -2.54% | -4.1% | -4.04%
18 | Cc1ccccc1C1c2cccn2-c2ccccc2CN1C(=O)Nc1ccc(Br)cc1 (centres undefined) | 7.18% | 0% | 2.54% | 5.74% | 6.46%
19 | CCCn1cc(C(=O)NC(C(=O)O)c2ccccc2C(F)(F)F)c(C)n1 (centres undefined) | -4.89% | -9.33% | -3.46% | -16.7% | -21.8%
20 | COc1ccc(C2c3cccn3-c3ccccc3CN2C(=O)Nc2cc(OC)ccc2OC)cc1 (centres undefined) | 6.76% | 1.04% | -1.32% | 0.339% | 5%
21 | Cc1ccc(NC(=O)N2Cc3ccccc3-n3cccc3C2c2ccc(N(C)C)cc2)cc1C (centres undefined) | 5.28% | 0% | 1.89% | 1.31% | 4.65%

Row | SMILES | activity change, negative = inhibition [1] | activity change, negative = inhibition [2] | activity change, negative = inhibition [3] | activity change, negative = inhibition [4] | activity change, negative = inhibition [5]
22 | O=C(Nc1ccc(F)c(Cl)c1)N1Cc2ccccc2-n2cccc2C1c1cccs1 (centres undefined) | 8.79% | 4.98% | 0.073% | -4.6% | 1.08%
23 | C[C@@H]1O[C@H](C[N+](C)(C)C)C[C@H]1O | -2.72% | 2.06% | 0.774% | -8.72% | 0.211%
24 | CCOc1ccc(C2c3cccn3-c3ccccc3CN2C(=O)NCCCOC)cc1 (centres undefined) | -4.01% | 4.61% | 1.19% | -8.05% | 0.297%
25 | CP(=O)(O)C1=CCNCC1 | -1.13% | 1.91% | 0.813% | -4.84% | 1.84%
26 | C/C=C1/CN2CC[C@]34C(=Nc5ccccc53)[C@@H]2C[C@@H]1[C@H]4C(=O)OC | -1.14% | 1.99% | -28.1% | -10.3% | -4.72%
27 | Cn1cc(C2=C(c3cn(C4CCN(Cc5ccccn5)CC4)c4ccccc34)C(=O)NC2=O)c2ccccc21 | -42.2% | – | -12.9% | -32.8% | -0.593%
28 | NC(=O)c1cc(N2CC2)c([N+](=O)[O-])cc1[N+](=O)[O-] | -0.444% | 12.5% | 1.46% | -3.9% | 8.26%
29 | COc1cccc(NC(=O)N2Cc3ccccc3-n3cccc3C2c2ccc(SC)cc2)c1 (centres undefined) | 2.36% | 0.251% | 4.45% | -0.7% | 7.1%
30 | COc1ccc(C2c3cccn3-c3ccccc3CN2C(=O)Nc2cc(C)ccc2C)cc1 (centres undefined) | -1.26% | 4.5% | -2.58% | -0.058% | -4.56%
31 | Cc1ccccc1C1c2cccn2-c2ccccc2CN1C(=O)NCc1ccc(F)cc1 (centres undefined) | 16% | 1.23% | 8.16% | 8.49% | 9.09%
32 | COc1ccc(C2c3cccn3-c3ccccc3CN2C(=O)Nc2ccc(C)c(C)c2)cc1 (centres undefined) | -1.64% | 4.8% | -0.547% | -3.1% | -3.41%
33 | CCc1ccc(NC(=O)N2Cc3ccccc3-n3cccc3C2c2cccc(Cl)c2)cc1 (centres undefined) | 10.5% | 1.25% | 5.31% | 8.64% | 5.18%
34 | CCc1c(C(=O)C(N)=O)c2c(OCC(=O)OC)cccc2n1Cc1ccccc1 | -5.99% | -5.59% | 1.24% | -22.4% | -4.24%
35 | CCOc1ccc(NC(=O)N2Cc3ccccc3-n3cccc3C2c2ccc(CC)cc2)cc1 (centres undefined) | 8.38% | 1.76% | 3.5% | 4.41% | 5.31%
36 | C[C@H](CCC(=O)O)C[C@H](C)C[C@H](C)C(=O)/C=C(\O)[C@H](C)C[C@H](C)C/C=C/[C@@H](C)[C@@H](O)[C@@H](C)[C@@H](O)C[C@@H]1CC[C@@](C)([C@H]2CC[C@@](C)([C@@H](C)O)O2)O1 | 2.45% | 19.1% | 9.27% | -3.65% | 2.27%
37 | CCOc1ccc(NC(=O)N2Cc3ccccc3-n3cccc3C2c2ccc(OC)cc2)cc1 (centres undefined) | 12.3% | 0% | 6.31% | 4.26% | 7.34%
38 | Cc1ccc(C2c3cccn3-c3ccccc3CN2C(=O)Nc2cc(C)ccc2C)cc1 (centres undefined) | 2.92% | 2.59% | -8.27% | -12.1% | -7.07%
39 | Cc1cccc(NC(=O)N2Cc3ccccc3-n3cccc3C2c2cccs2)c1C (centres undefined) | 3.01% | 0% | -3.17% | -0.61% | 5.77%
40 | CCC1c2cccn2-c2ccccc2CN1C(=O)Nc1ccc(F)c(Cl)c1 (centres undefined) | -0.412% | 5.11% | 6.96% | 2.56% | 7.87%
41 | CC(C)C1c2cccn2-c2ccccc2CN1C(=O)Nc1ccccc1Br (centres undefined) | -5.25% | 4% | -2.18% | -5.39% | 0.849%
42 | CC(=O)O[C@H]1CN2CCC1CC2 | -1.58% | 2.04% | -45.7% | -6.66% | 1.57%

Row | SMILES | activity change, negative = inhibition [1] | activity change, negative = inhibition [2] | activity change, negative = inhibition [3] | activity change, negative = inhibition [4] | activity change, negative = inhibition [5]
43 | COc1ccc(C)cc1NC(=O)N1Cc2ccccc2-n2cccc2C1c1cc(F)cc(F)c1 (centres undefined) | 7.86% | 0% | -1.2% | 4.24% | 5.86%
44 | C[C@@](O)(COc1ccc(C#N)cc1)C(=O)Nc1ccc(C#N)c(C(F)(F)F)c1 | -1.6% | 4.9% | 7.39% | -12.8% | -5.65%
45 | COC(=O)c1cccc(NC(=O)N2Cc3ccccc3-n3cccc3C2c2ccc(OC)c(OC)c2)c1 (centres undefined) | 9.32% | 0% | 0.427% | -0.374% | 3.37%
46 | CCOc1ccc(C2c3cccn3-c3ccccc3CN2C(=O)Nc2ccccc2C)cc1 (centres undefined) | -1.7% | 0% | 11.1% | 9.4% | 6.68%
47 | COc1ccc(OC)c(NC(=O)N2Cc3ccccc3-n3cccc3C2c2ccc(SC)cc2)c1 (centres undefined) | -2.77% | 3.59% | 3.43% | -0.891% | 2.18%
48 | Cc1ccccc1C1c2cccn2-c2ccccc2CN1C(=O)NC1CCCC1 (centres undefined) | 6.93% | 0% | -2.11% | -7.36% | 6.47%
49 | CCOC(=O)c1ccc(NC(=O)N2Cc3ccccc3-n3cccc3C2c2cccs2)cc1 (centres undefined) | 6.12% | 0.357% | -1.69% | -1.67% | 4.49%
50 | CC1(N2CCC(n3c([C@@H]4CCCNC4)nc4ccccc43)CC2)CCCCCCC1 | -2.31% | 10.1% | -12.9% | -11.1% | -0.526%
51 | CCCNC(=O)N1Cc2ccccc2-n2cccc2C1c1ccccc1C (centres undefined) | 8.55% | 0.267% | 5.37% | -5.29% | 6.86%
52 | CC1(C)C(=O)N(c2ccc(C#N)c(C(F)(F)F)c2)C(=O)N1CCCCO | 4.04% | 6.85% | 12.9% | -9.5% | 4.23%
53 | COc1ccc(C2c3cccn3-c3ccccc3CN2C(=O)Nc2cccc(SC)c2)cc1OC (centres undefined) | 8.69% | 2.13% | 0.18% | -7.27% | -0.036%
54 | CCOC(=O)C1CCC(CNC(=O)N2Cc3ccccc3-n3cccc3C2CC)CC1 (centres undefined) | 0.882% | 2.93% | 1.53% | -8.12% | -2.11%
55 | CCOc1ccccc1NC(=O)N1Cc2ccccc2-n2cccc2C1c1ccc(OC)c(OC)c1 (centres undefined) | 5.48% | 0% | -3.84% | -4.04% | -1.56%
56 | CC1=CC2(O)/C=C/C(C)(O)C(O)C(O)/C=C/C(=O)OC23C(=O)NC(CC(C)C)C3C1C (centres undefined) | 3.09% | 4.07% | 10.3% | -8.34% | -0.89%
57 | Cc1cccc(NC(=O)N2Cc3ccccc3-n3cccc3C2c2ccc(F)cc2)c1 (centres undefined) | -0.287% | 0.55% | 5.5% | 5.66% | 8.9%
58 | CCC1c2cccn2-c2ccccc2CN1C(=O)NCCC(C)C (centres undefined) | -2.12% | 0.912% | 3.07% | -4.66% | 1.56%
59 | CCOc1ccc(NC(=O)N2Cc3ccccc3-n3cccc3C2CC)cc1 (centres undefined) | -0.18% | 0% | 4.12% | 0.121% | 4.93%
60 | C/C=C(\C)C(=O)OC1CC2C(C)(C)OC(=O)CC(OC(C)=O)C2(C)C2CC(OC(=O)C(C)C)C3(C)C(c4ccoc4)CC4OC43C12C (centres undefined) | 0% | -2.3% | 2.63% | -16.8% | 1.83%
61 | Cc1nc(-c2ccco2)cc([C@H]2CN3CC[C@H]2C[C@@H]3CNS(C)(=O)=O)n1 | -2.46% | -0.524% | -8.02% | -6.4% | -5.96%
